# Source: the supplement of paper PMC4604168 (melanoma cell lines)
# The list shows a part of the results. Most values come without repeats; read them as rough.
# Test system: WM1745
# Experiment: cell count relative to DMSO control; melanoma cells; higher = more viable cells
# Conditions: library dose: low library concentration; 72 h
# 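Note: cell number obtained by counting DAPI-stained nuclei in high-throughput microscope images with image analysis software, screen run in 1,536-well plates.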
row,SMILES,cell count [%]
1,"CC[C@]1(O)C[C@H]2CN(CCc3c([nH]c4ccccc34)[C@@](C(=O)OC)(c3cc4c(cc3OC)N(C=O)[C@H]3[C@@](O)(C(=O)OC)[C@H](OC(C)=O)[C@]5(CC)C=CCN6CC[C@]43[C@@H]65)C2)C1 [vincristine] + CS(=O)(=O)c1ccc(C(=O)Nc2ccc(Cl)c(-c3ccccn3)c2)c(Cl)c1 [vismodegib] (first compound 0.0001 µM, partner dose 1 µM)",89.1
2,"CC[C@]1(O)C[C@H]2CN(CCc3c([nH]c4ccccc34)[C@@](C(=O)OC)(c3cc4c(cc3OC)N(C=O)[C@H]3[C@@](O)(C(=O)OC)[C@H](OC(C)=O)[C@]5(CC)C=CCN6CC[C@]43[C@@H]65)C2)C1 [vincristine] + CN(NC(=O)CC(=O)NN(C)C(=S)c1ccccc1)C(=S)c1ccccc1 [STA4783] (first compound 0.0001 µM, partner dose 0.006 µM)",54.7
3,"N#CC[C@H](C1CCCC1)n1cc(-c2ncnc3[nH]ccc23)cn1 [ruxolitinib] + O=C(CCCCCCC(=O)Nc1ccccc1)NO [vorinostat] (first compound 1 µM, partner dose 0.08 µM)",109
4,"CC[C@]1(O)C[C@H]2CN(CCc3c([nH]c4ccccc34)[C@@](C(=O)OC)(c3cc4c(cc3OC)N(C=O)[C@H]3[C@@](O)(C(=O)OC)[C@H](OC(C)=O)[C@]5(CC)C=CCN6CC[C@]43[C@@H]65)C2)C1 [vincristine] + Cc1cn(-c2cc(NC(=O)c3ccc(C)c(Nc4nccc(-c5cccnc5)n4)c3)cc(C(F)(F)F)c2)cn1 [nilotinib] (first compound 0.0001 µM, partner dose 0.2 µM)",69
5,"N#CC[C@H](C1CCCC1)n1cc(-c2ncnc3[nH]ccc23)cn1 [ruxolitinib] + COc1cc([C@@H]2c3cc4c(cc3[C@@H](O[C@@H]3O[C@@H]5CO[C@@H](C)O[C@H]5[C@H](O)[C@H]3O)[C@H]3COC(=O)[C@H]23)OCO4)cc(OC)c1O [etoposide] (first compound 1 µM, partner dose 0.02 µM)",106
6,"CC[C@]1(O)C[C@H]2CN(CCc3c([nH]c4ccccc34)[C@@](C(=O)OC)(c3cc4c(cc3OC)N(C=O)[C@H]3[C@@](O)(C(=O)OC)[C@H](OC(C)=O)[C@]5(CC)C=CCN6CC[C@]43[C@@H]65)C2)C1 [vincristine] + Cn1sc(=O)n(Cc2ccccc2)c1=O [TDZD-8] (first compound 0.0001 µM, partner dose 0.4 µM)",80.6
7,"N#CC[C@H](C1CCCC1)n1cc(-c2ncnc3[nH]ccc23)cn1 [ruxolitinib] + Oc1cc(-c2nc(-c3ccccc3)[nH]c2-c2ccncc2)ccc1Cl [L779450] (first compound 1 µM, partner dose 0.2 µM)",98
8,"CC[C@]1(O)C[C@H]2CN(CCc3c([nH]c4ccccc34)[C@@](C(=O)OC)(c3cc4c(cc3OC)N(C=O)[C@H]3[C@@](O)(C(=O)OC)[C@H](OC(C)=O)[C@]5(CC)C=CCN6CC[C@]43[C@@H]65)C2)C1 [vincristine] + C[C@@H](Oc1cc(-c2cnn(C3CCNCC3)c2)cnc1N)c1c(Cl)ccc(F)c1Cl [Crizotinib] (first compound 0.0001 µM, partner dose 0.2 µM)",83.4
9,"CC[C@]1(O)C[C@H]2CN(CCc3c([nH]c4ccccc34)[C@@](C(=O)OC)(c3cc4c(cc3OC)N(C=O)[C@H]3[C@@](O)(C(=O)OC)[C@H](OC(C)=O)[C@]5(CC)C=CCN6CC[C@]43[C@@H]65)C2)C1 [vincristine] + CCN(CC)CCNC(=O)c1c(C)[nH]c(/C=C2\C(=O)Nc3ccc(F)cc32)c1C [sunitinib] (first compound 0.0001 µM, partner dose 0.4 µM)",85.5
10,"Cc1cc(Nc2cc(N3CCN(C)CC3)nc(Sc3ccc(NC(=O)C4CC4)cc3)n2)n[nH]1 [Tozasertib] + C=CCn1c(=O)c2cnc(Nc3ccc(N4CCN(C)CC4)cc3)nc2n1-c1cccc(C(C)(C)O)n1 [MK1775] (first compound 0.006 µM, partner dose 0.02 µM)",48
11,"CC[C@]1(O)C[C@H]2CN(CCc3c([nH]c4ccccc34)[C@@](C(=O)OC)(c3cc4c(cc3OC)N(C=O)[C@H]3[C@@](O)(C(=O)OC)[C@H](OC(C)=O)[C@]5(CC)C=CCN6CC[C@]43[C@@H]65)C2)C1 [vincristine] + CCN(CC)CCCCNc1ncc2cc(-c3cc(OC)cc(OC)c3)c(NC(=O)NC(C)(C)C)nc2n1 [PD173074] (first compound 0.0001 µM, partner dose 0.1 µM)",82.6
12,"N#CC[C@H](C1CCCC1)n1cc(-c2ncnc3[nH]ccc23)cn1 [ruxolitinib] + CCN(CC)CCNC(=O)c1c(C)[nH]c(/C=C2\C(=O)Nc3ccc(F)cc32)c1C [sunitinib] (first compound 1 µM, partner dose 0.4 µM)",97.4
13,"Cc1cc(Nc2cc(N3CCN(C)CC3)nc(Sc3ccc(NC(=O)C4CC4)cc3)n2)n[nH]1 [Tozasertib] + Cn1sc(=O)n(Cc2ccccc2)c1=O [TDZD-8] (first compound 0.006 µM, partner dose 0.4 µM)",91.4
14,"N#CC[C@H](C1CCCC1)n1cc(-c2ncnc3[nH]ccc23)cn1 [ruxolitinib] + CC[C@]1(O)C[C@H]2CN(CCc3c([nH]c4ccccc34)[C@@](C(=O)OC)(c3cc4c(cc3OC)N(C=O)[C@H]3[C@@](O)(C(=O)OC)[C@H](OC(C)=O)[C@]5(CC)C=CCN6CC[C@]43[C@@H]65)C2)C1 [vincristine] (first compound 1 µM, partner dose 0.0001 µM)",94.1
15,"CC[C@]1(O)C[C@H]2CN(CCc3c([nH]c4ccccc34)[C@@](C(=O)OC)(c3cc4c(cc3OC)N(C=O)[C@H]3[C@@](O)(C(=O)OC)[C@H](OC(C)=O)[C@]5(CC)C=CCN6CC[C@]43[C@@H]65)C2)C1 [vincristine] + OCc1c[nH]c2ccccc12 [Indole-3-carbinol] (first compound 0.0001 µM, partner dose 0.8 µM)",78.6
16,"Cc1cc(Nc2cc(N3CCN(C)CC3)nc(Sc3ccc(NC(=O)C4CC4)cc3)n2)n[nH]1 [Tozasertib] + Cc1nc(Nc2ncc(C(=O)Nc3c(C)cccc3Cl)s2)cc(N2CCN(CCO)CC2)n1 [dasatanib] (first compound 0.006 µM, partner dose 0.004 µM)",56.6
17,"N#CC[C@H](C1CCCC1)n1cc(-c2ncnc3[nH]ccc23)cn1 [ruxolitinib] + O=C(O)[C@@H]1[O][Sb](=[O])([O][Sb]2(=[O])[O][C@H]([C@H](O)CO)[C@H](O)[C@H](C(=O)O)[O]2)[O][C@H]([C@H](O)CO)[C@@H]1O [stibogluconate] (first compound 1 µM, partner dose 2 µM)",96.8
18,"CC[C@]1(O)C[C@H]2CN(CCc3c([nH]c4ccccc34)[C@@](C(=O)OC)(c3cc4c(cc3OC)N(C=O)[C@H]3[C@@](O)(C(=O)OC)[C@H](OC(C)=O)[C@]5(CC)C=CCN6CC[C@]43[C@@H]65)C2)C1 [vincristine] + O=C(/C=C/c1cccnc1)NCCCCC1CCN(C(=O)c2ccccc2)CC1 [FK866] (first compound 0.0001 µM, partner dose 0.01 µM)",88.8
19,"N#CC[C@H](C1CCCC1)n1cc(-c2ncnc3[nH]ccc23)cn1 [ruxolitinib] + COc1ccc(-c2ccc3c(N4CCOCC4)nc(N4C[C@@H](C)O[C@@H](C)C4)nc3n2)cc1CO [KU0063794] (first compound 1 µM, partner dose 0.02 µM)",87.7
20,"CC[C@]1(O)C[C@H]2CN(CCc3c([nH]c4ccccc34)[C@@](C(=O)OC)(c3cc4c(cc3OC)N(C=O)[C@H]3[C@@](O)(C(=O)OC)[C@H](OC(C)=O)[C@]5(CC)C=CCN6CC[C@]43[C@@H]65)C2)C1 [vincristine] + Nc1ccn([C@@H]2O[C@H](CO)[C@@H](O)C2(F)F)c(=O)n1 [gemcitabine] (first compound 0.0001 µM, partner dose 0.0004 µM)",82.3
21,"Cc1cc(Nc2cc(N3CCN(C)CC3)nc(Sc3ccc(NC(=O)C4CC4)cc3)n2)n[nH]1 [Tozasertib] + O=S(=O)(c1ccccc1)N(CC(F)(F)F)c1ccc(C(O)(C(F)(F)F)C(F)(F)F)cc1 [T0901317] (first compound 0.006 µM, partner dose 1.4 µM)",80.5
22,"CC[C@]1(O)C[C@H]2CN(CCc3c([nH]c4ccccc34)[C@@](C(=O)OC)(c3cc4c(cc3OC)N(C=O)[C@H]3[C@@](O)(C(=O)OC)[C@H](OC(C)=O)[C@]5(CC)C=CCN6CC[C@]43[C@@H]65)C2)C1 [vincristine] + COc1cc2c(Oc3ccc4[nH]c(C)cc4c3F)ncnc2cc1OCCCN1CCCC1 [cediranib] (first compound 0.0001 µM, partner dose 0.4 µM)",117
23,"CC[C@]1(O)C[C@H]2CN(CCc3c([nH]c4ccccc34)[C@@](C(=O)OC)(c3cc4c(cc3OC)N(C=O)[C@H]3[C@@](O)(C(=O)OC)[C@H](OC(C)=O)[C@]5(CC)C=CCN6CC[C@]43[C@@H]65)C2)C1 [vincristine] + CCCCCCCCc1ccc(CCC(N)(CO)CO)cc1 [fingolimod] (first compound 0.0001 µM, partner dose 2 µM)",64.7
